The other results are listed elsewhere or left out.
Key:
Assay in all cases: glycan array binding signal (z-score within array); higher = stronger binding
Details in all cases: glycan notation: IUPAC condensed, linker removed
[1] = molecular target: Man(a1-3)[Man(a1-6)]Man(a1-6)[Man(a1-3)]Man(b1-4)GlcNAc(b1-4)GlcNAc
In short: (§1)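 The binding signal is a Z-score computed within each array. Data were drawn from 3228 arrays in the Consortium for Functional Glycomics database, restricted to those with a known protein sequence. Scores were averaged over arrays of the same protein sequence at different concentrations or buffers, and over linkers, and negative values can be taken as non-binding.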

[2] = molecular target: Man(a1-3)[Man(a1-6)]Man(b1-4)GlcNAc(b1-4)GlcNAc
In short: as §1

Man(a1-6)Man = molecular target: Man(a1-6)Man
In short: as §1

Man(b1-4)GlcNAc = molecular target: Man(b1-4)GlcNAc
In short: as §1

Neu5Ac(a2-3)Gal = molecular target: Neu5Ac(a2-3)Gal
In short: as §1

[3] = molecular target: Neu5Ac(a2-3)Gal(b1-3)GalNAc
In short: as §1

[4] = molecular target: Neu5Ac(a2-3)Gal(b1-3)GalNAc(b1-3)Gal(a1-4)Gal(b1-4)Glc
In short: as §1

[5] = molecular target: Neu5Ac(a2-3)Gal(b1-3)GalNAc(b1-3)Gal(b1-4)GlcNAc
In short: as §1

[6] = molecular target: Neu5Ac(a2-3)Gal(b1-3)GalNAc(b1-4)[Neu5Ac(a2-3)]Gal(b1-4)Glc
In short: as §1

[7] = molecular target: Neu5Ac(a2-3)Gal(b1-3)GalNAc6S
In short: as §1

[8] = molecular target: Neu5Ac(a2-3)Gal(b1-3)GlcNAc
In short: as §1

[9] = molecular target: Neu5Ac(a2-3)Gal(b1-3)GlcNAc(b1-3)Gal(b1-3)GlcNAc
In short: as §1

[10] = molecular target: Neu5Ac(a2-3)Gal(b1-3)GlcNAc6S
In short: as §1

[11] = molecular target: Neu5Ac(a2-3)Gal(b1-3)[Fuc(a1-4)]GlcNAc
In short: as §1

[12] = molecular target: Neu5Ac(a2-3)Gal(b1-3)[Fuc(a1-4)]GlcNAc(b1-3)Gal(b1-3)[Fuc(a1-4)]GlcNAc
In short: as §1

[13] = molecular target: Neu5Ac(a2-3)Gal(b1-3)[Fuc(a1-4)]GlcNAc(b1-3)Gal(b1-4)[Fuc(a1-3)]GlcNAc
In short: as §1

[14] = molecular target: Neu5Ac(a2-3)Gal(b1-3)[Neu5Ac(a2-3)Gal(b1-4)]GlcNAc
In short: as §1

[15] = molecular target: Neu5Ac(a2-3)Gal(b1-3)[Neu5Ac(a2-6)]GalNAc
In short: as §1

Neu5Ac(a2-3)Gal(b1-4)Glc = molecular target: Neu5Ac(a2-3)Gal(b1-4)Glc
In short: as §1

[16] = molecular target: Neu5Ac(a2-3)Gal(b1-4)GlcNAc
In short: as §1

[17] = molecular target: Neu5Ac(a2-3)Gal(b1-4)GlcNAc(b1-2)Man(a1-3)[GlcNAc(b1-2)Man(b1-4)GlcNAc(b1-2)Man(a1-6)]Man(b1-4)GlcNAc(b1-4)GlcNAc
In short: as §1

[18] = molecular target: Neu5Ac(a2-3)Gal(b1-4)GlcNAc(b1-2)Man(a1-3)[Neu5Ac(a2-6)Gal(b1-4)GlcNAc(b1-2)Man(a1-6)]Man(b1-4)GlcNAc(b1-4)GlcNAc
In short: as §1

[19] = molecular target: Neu5Ac(a2-3)Gal(b1-4)GlcNAc(b1-3)Gal(b1-3)GlcNAc
In short: as §1

[20] = molecular target: Neu5Ac(a2-3)Gal(b1-4)GlcNAc(b1-3)Gal(b1-4)GlcNAc
In short: as §1

[21] = molecular target: Neu5Ac(a2-3)Gal(b1-4)GlcNAc(b1-3)Gal(b1-4)GlcNAc(b1-3)Gal(b1-4)GlcNAc
In short: as §1

[22] = molecular target: Neu5Ac(a2-3)Gal(b1-4)GlcNAc(b1-3)Gal(b1-4)[Fuc(a1-3)]GlcNAc
In short: as §1

[23] = molecular target: Neu5Ac(a2-3)Gal(b1-4)GlcNAc(b1-3)GalNAc
In short: as §1

[24] = molecular target: Neu5Ac(a2-3)Gal(b1-4)GlcNAc(b1-6)[Gal(b1-3)]GalNAc
In short: as §1

[25] = molecular target: Neu5Ac(a2-3)Gal(b1-4)GlcNAc(b1-6)[Neu5Ac(a2-3)Gal(b1-3)]GalNAc
In short: as §1

[26] = molecular target: Neu5Ac(a2-3)Gal(b1-4)GlcNAc6S
In short: as §1

[27] = molecular target: Neu5Ac(a2-3)Gal(b1-4)[Fuc(a1-3)]GlcNAc
In short: as §1

[28] = molecular target: Neu5Ac(a2-3)Gal(b1-4)[Fuc(a1-3)]GlcNAc(b1-3)Gal
In short: as §1

[29] = molecular target: Neu5Ac(a2-3)Gal(b1-4)[Fuc(a1-3)]GlcNAc(b1-3)Gal(b1-4)GlcNAc
In short: as §1

[30] = molecular target: Neu5Ac(a2-3)Gal(b1-4)[Fuc(a1-3)]GlcNAc(b1-3)Gal(b1-4)[Fuc(a1-3)]GlcNAc(b1-3)Gal(b1-4)[Fuc(a1-3)]GlcNAc
In short: as §1

[31] = molecular target: Neu5Ac(a2-3)Gal(b1-4)[Fuc(a1-3)]GlcNAc(b1-6)[Gal(b1-3)]GalNAc
In short: as §1

[32] = molecular target: Neu5Ac(a2-3)Gal(b1-4)[Fuc(a1-3)]GlcNAc(b1-6)[Neu5Ac(a2-3)Gal(b1-3)]GalNAc
In short: as §1

[33] = molecular target: Neu5Ac(a2-3)Gal(b1-4)[Fuc(a1-3)]GlcNAc6S
In short: as §1

[34] = molecular target: Neu5Ac(a2-3)Gal6S(b1-4)GlcNAc
In short: as §1

[35] = molecular target: Neu5Ac(a2-3)Gal6S(b1-4)[Fuc(a1-3)]GlcNAc
In short: as §1

Neu5Ac(a2-3)GalNAc = molecular target: Neu5Ac(a2-3)GalNAc
In short: as §1

[36] = molecular target: Neu5Ac(a2-3)GalNAc(b1-4)GlcNAc
In short: as §1

[37] = molecular target: Neu5Ac(a2-3)[GalNAc(b1-4)]Gal(b1-4)Glc
In short: as §1

[38] = molecular target: Neu5Ac(a2-3)[GalNAc(b1-4)]Gal(b1-4)GlcNAc
In short: as §1

B1: StdA (Salmonella typhimurium), Q8Z3Z0 (protein)
chain: MAAAGMMYGASVFAADTTPTAGPFGSGKILFTGTITNSPCDIAPGDDAITVPFGQISYRKLNTANATTDSKPFTIHLQNCAFDPNETTIAGSAGKMSKVTVSFSGTADTSGKAYVSTGSAQHVGVQLLKGDNTSLITPNTPMPDGDAQQLQAGNNELNFFARLIALTDAATPGDVNASVTYTLKYL
glycan array binding signal (z-score) [1]: -0.131 | glycan array binding signal (z-score) [2]: -0.463 | glycan array binding signal (z-score) (Man(a1-6)Man): -0.416 | glycan array binding signal (z-score) (Man(b1-4)GlcNAc): -0.303 | glycan array binding signal (z-score) (Neu5Ac(a2-3)Gal): -0.386 | glycan array binding signal (z-score) [3]: -0.736 | glycan array binding signal (z-score) [4]: -0.426 | glycan array binding signal (z-score) [5]: -0.265 | glycan array binding signal (z-score) [6]: 0.041 | glycan array binding signal (z-score) [7]: -0.759 | glycan array binding signal (z-score) [8]: -0.472 | glycan array binding signal (z-score) [9]: 0.09 | glycan array binding signal (z-score) [10]: -0.5 | glycan array binding signal (z-score) [11]: -0.342 | glycan array binding signal (z-score) [12]: -0.311 | glycan array binding signal (z-score) [13]: -0.445 | glycan array binding signal (z-score) [14]: -0.435 | glycan array binding signal (z-score) [15]: 0.014 | glycan array binding signal (z-score) (Neu5Ac(a2-3)Gal(b1-4)Glc): -0.372 | glycan array binding signal (z-score) [16]: -0.157 | glycan array binding signal (z-score) [17]: -0.012 | glycan array binding signal (z-score) [18]: -0.746 | glycan array binding signal (z-score) [19]: -0.342 | glycan array binding signal (z-score) [20]: -0.399 | glycan array binding signal (z-score) [21]: -0.744 | glycan array binding signal (z-score) [22]: 0.755 | glycan array binding signal (z-score) [23]: -0.642 | glycan array binding signal (z-score) [24]: 0.124 | glycan array binding signal (z-score) [25]: -0.792 | glycan array binding signal (z-score) [26]: -0.404 | glycan array binding signal (z-score) [27]: -0.614 | glycan array binding signal (z-score) [28]: -0.473 | glycan array binding signal (z-score) [29]: 0.779 | glycan array binding signal (z-score) [30]: -0.198 | glycan array binding signal (z-score) [31]: 2.27 | glycan array binding signal (z-score) [32]: 1.41 | glycan array binding signal (z-score) [33]: -0.293 | glycan array binding signal (z-score) [34]: -0.214 | glycan array binding signal (z-score) [35]: -0.437 | glycan array binding signal (z-score) (Neu5Ac(a2-3)GalNAc): 0.172 | glycan array binding signal (z-score) [36]: -0.754 | glycan array binding signal (z-score) [37]: -0.281 | glycan array binding signal (z-score) [38]: -0.022

Reference: the supplement of paper PMC8728848
